In PubChem BioAssay AID686979 (National Center for Advancing Translational Sciences (NCATS), 2013):
Where “and” joins values, the source holds several entries; their conditions need not be identical. Equal entries are not always repeated. About 50,000 (12%) of roughly 420,000 compounds were called active. This list was built around the results that the source calls inconclusive (neither active nor inactive); the mix of calls is not that of the screen. The call rests on the fitted dose curve; in most records, active means well fitted inhibition curve with a large enough effect; inconclusive means small, poorly fitted or top-dose-only effect; inactive means flat fitted curve, though single readings scatter. Where the call is inconclusive, the potency comes from a doubtful curve fit.

Test: qHTS for Inhibitors of human tyrosyl-DNA phosphodiesterase 1 (TDP1): qHTS in cells in presence of CPT; further: nearly all actives have a fitted effect of over 55% in size
Conditions: chicken DT40 Tdp1-/-;hTDP1 cells + 20 nM CPT, ATP luminescence, 48 h; activity change, negative = growth inhibition: at 46.2 µM (top of the series)
How it was run: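 Chicken DT40 Tdp1-/- cells complemented with human TDP1, 400 cells/well, exposed to compounds plus 20 nM camptothecin for at least 48 h at 37 C; viability read as ATP content by CellTiter-Glo luminescence.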
On the % scale 0 is the no-effect control and ±100 the full control effect; potency means the concentration at half of the fitted maximal effect; tags describe the fitted curve by direction and shape.

Row | Structure (SMILES) | Potency | activity change, negative = growth inhibition
1 | CCN(CC)C(=O)C1=C(C)N(Cc2ccccc2)C(=O)C(CC(=O)NC(c2ccccc2)c2ccccc2)C1 (configuration not stated) | inconclusive: 29.1 µM [inhibitor, single point] | –
2 | O=C(C=C1CCN(c2ncc(C(F)(F)F)cc2Cl)CC1)NNC(=O)Nc1ccc(Cl)cc1 | inactive | –
3 | COc1ccc(OC)c(-c2cn(S(=O)(=O)c3ccccc3)nc2N)c1 | – | inconclusive: -42% [inhibitor]
4 | COc1ccc(/C=N/NC(=O)c2cccc([N+](=O)[O-])c2)cc1OC(=O)c1ccc(C)cc1 | inconclusive: 18.4 µM [inhibitor, single point] | –
5 | COC(=O)c1cc(NCc2c(F)cccc2Cl)ccc1N1CCOCC1 | inconclusive: 32.6 µM [inhibitor, partial curve, poor fit] | –
6 | Cc1cccc(-n2ccnc2SCC(=O)Nc2ccc3c(c2)OCCO3)c1 | inconclusive: 20.6 µM [inhibitor, single point] | –
7 | Cc1noc(C)c1C(=O)N1CCC2(CCN(Cc3ccccc3)CC2)CC1 | inactive | –
8 | CCOCCCNC(=O)c1cc(-c2cccnc2)nc2ccc(S(=O)(=O)N3CCC(C)CC3)cc12 | inactive | –
9 | CCCCN1C(=O)C(CC(=O)NCCN2CCOCC2)CC(C(=O)N(C(C)C)C(C)C)=C1C (configuration not stated) | inactive | –
10 | CCOC(=O)C1=CN(CC)CCC1=O | inactive | –
11 | COc1ccc(Cl)cc1C(=O)NNC(=S)NC1CCCC1 | inconclusive: 29.1 µM [inhibitor, single point] | –
12 | CCOC(=O)c1c(N)sc(-c2ccccc2)c1C | inconclusive: 16.4 µM [inhibitor, partial curve] | –
13 | CCCS(=O)(=O)N1CCN=C1SCc1cccc(F)c1 | inactive | –
14 | CC[C@@H](C)[C@@H](C(=O)N1CCN(C(=O)OC(C)(C)C)CC1)n1cc(CCCN=C(NC(=O)OC(C)(C)C)NC(=O)OC(C)(C)C)nn1 | inconclusive: 29.1 µM [inhibitor, single point] | –
15 | Cc1onc(-c2ccccc2)c1C(=O)OCCOc1cccc(Cl)c1 | inconclusive: 18.4 µM [inhibitor, single point] | –
16 | COc1cc(-c2cc(=O)c3c(O)c(OC)c(OC)c(OC)c3o2)cc(OC)c1OC | inconclusive: 4.11 µM [inhibitor, full curve] | –
17 | COc1ccc(Cn2cc(C(=O)c3ccc(C)cc3)c(=O)c3cc(OC)c(OC)cc32)cc1 | inconclusive: 29.1 µM [inhibitor, single point] | –
18 | CCOC(=O)c1c(C)n(C)c2ccc(OC)c(NS(=O)(=O)c3ccc(Cl)s3)c12 | inconclusive: 29.1 µM [inhibitor, single point] | –
19 | COc1ccc(S(=O)(=O)c2c(C)c(NS(=O)(=O)c3ccccc3)cc(C)c2O)cc1 | inconclusive: 18.4 µM [inhibitor, single point] | –
20 | C[C@@H](CN1C2=NC[C@H](C)N2C[C@H]1Cc1ccc(O)cc1)NC(=O)CCC1CCCCC1 | active: 11.6 µM | –
21 | O=C(CSc1nc2c(c(=O)[nH]1)CCC2)Nc1ccccc1C(F)(F)F | inactive | –
22 | COC(=O)c1ccc(NC(=O)CC(=O)Nc2ccc(C(=O)OC)cc2)cc1 | inactive | –
23 | O=C([C@@H]1C[C@@H](Sc2nc3ccccc3[nH]2)CN1Cc1ccc(C(F)(F)F)cc1)N1CCN(c2ccccc2F)CC1 | inconclusive: 29.1 µM [inhibitor, single point] | –

Row | Structure (SMILES) | Potency | activity change, negative = growth inhibition
24 | CCOC(=O)C1CCCCN1S(=O)(=O)c1csc(C(N)=O)c1 (configuration not stated) | inactive | –
25 | CCn1cc(C(=O)NCc2ccccc2)c(=O)c2cc(S(=O)(=O)N3CCc4ccccc4C3)ccc21 | inconclusive: 18.4 µM [inhibitor, partial curve] | –
26 | O=C(c1cc(Cl)cc(Cl)c1)N1CCC2CC1c1cc(N3CCCCC3)ccc12 (configuration not stated) | inconclusive: 23.1 µM [inhibitor, single point] | –
27 | CCCC1C(C#N)=C(N)Oc2n[nH]c(C(C)(C)C)c21 (configuration not stated) | inconclusive: 16.4 µM [inhibitor, single point] | –
28 | COc1cc(C(c2c(C)[nH][nH]c2=O)c2c(C)[nH][nH]c2=O)ccc1OC(=O)c1cccc(C)c1 | inconclusive: 9.2 µM [inhibitor, partial curve, poor fit] | –
29 | CCN(CC(=O)Nc1cc(Cl)ccc1C)C(=O)c1ccc2c(=O)n3c(nc2c1)CCC3 | inactive | –
30 | COc1ccc(-c2cc(C(=O)NCc3ccc(F)cc3)[nH]n2)c(C)c1 | active: 18.4 µM | –
31 | CCCCn1nc(C(=O)OCC(=O)Nc2sccc2C(N)=O)c2ccccc2c1=O | inactive | –
32 | COc1ccc2c(c1)[C@H]1[C@H](CO2)[C@H](c2ccccc2)[C@]2(C)C(=O)Nc3cc(Cl)ccc3C(=O)N12 | inconclusive: 29.1 µM [inhibitor, single point] | –
33 | O=C(NCc1ccccc1CN1CCCC1)C1CCN(S(=O)(=O)c2ccc(Cl)cc2)CC1 | inconclusive: 29.1 µM [inhibitor, single point] | –
34 | CN=c1sc2c(n1C)C(=O)c1ccccc1C2=O | active: 4.11 µM | –
35 | Cn1cnc([N+](=O)[O-])c1Sc1nc(N)nc2c1ncn2C1OC(CO)C(O)C1O (configuration not stated) | inconclusive: 9.2 µM [inhibitor, partial curve] | –
36 | O=C(c1ccccc1)N1CCN(c2ccc([N+](=O)[O-])cc2-n2cccc2)CC1 | inconclusive: 29.1 µM [inhibitor, single point] | –
37 | O=C(c1nc2ccccn2c1CNCCn1ccc2ccccc21)N1CCOCC1 | inconclusive: 16.4 µM [inhibitor, single point] | –
38 | O=C(C[N+]12CCCc3cccc(c31)CCC2)c1ccccc1 | inconclusive: 35.5 µM [inhibitor, single point] | –
39 | COCc1nnc(NC(=O)CCCOc2ccccc2)s1 | inactive | –
40 | Cc1cccc(NC(=O)c2nc[nH]c2C(=O)NCCCCCCNC(=O)c2[nH]cnc2C(=O)Nc2cccc(C)c2)c1 | active: 11.6 µM | –
41 | CC(CNC(=O)c1ccc(Br)o1)NC(=O)c1ccc(Br)o1 (configuration not stated) | active: 8.2 µM | –
42 | CCOC(=O)CN(C)S(=O)(=O)c1ccc(-c2cc(C(=O)OC)sc2C(F)(F)F)cc1 | inconclusive: 18.4 µM [inhibitor, partial curve, poor fit] | –
43 | COc1ccc(C2=NC(c3ccncc3)=Nc3ccc(Br)cc3N2)cc1 | inconclusive: 13 µM [inhibitor, partial curve] | –
44 | COc1ccc(CN2C[C@@H](CO)O[C@@H](n3cnc4c(N5CCOCC5)ncnc43)C2)cc1 | inactive | –
45 | C[C@@H]1CN([C@@H](C)CO)C(=O)CCCn2cc(nn2)CO[C@H]1CN(C)C(=O)Oc1ccccc1 | inactive | –
46 | COC(=O)C1=CN(c2cc(C)cc(C)c2)C=C(C(=O)OC)C1c1cccc(F)c1 | active: 18.4 µM | –

Row | Structure (SMILES) | Potency | activity change, negative = growth inhibition
47 | CC(C)CNS(=O)(=O)c1ccc(CCC(=O)NCCc2ccccc2)cc1 | inactive | –
48 | Cc1ccc(CSCC(=O)Nc2ccc(N3CCOCC3)cc2N2CCOCC2)cc1 | inconclusive: 29.1 µM [inhibitor, single point] | –
49 | CC[C@]12c3[nH]c4ccc(Cl)cc4c3CCN1C(=O)[C@@H](CC(=O)NCCC1=CCCCC1)C[C@@H]2C(=O)N1CCN(C(=O)C2CC2)CC1 | inconclusive: 29.1 µM [inhibitor, single point] | –
50 | Cc1cnc(NC(=O)c2ccc3ncsc3c2)s1 | inactive | –
51 | COc1cccc(CNS(=O)(=O)c2cc(Br)ccc2Br)c1 | inconclusive: 29.1 µM [inhibitor, single point] | –
52 | CN(C)c1ccc(-n2c(CCC(=O)O)ccc2-c2ccccc2)cc1 | inactive | –
53 | CC(=O)NCCc1nc2cc(NC(=O)Nc3ccccc3)ccc2n1C | inactive | –
54 | Cc1cc(-c2ccc(S(=O)(=O)N3CCN(c4cccc(C)c4C)CC3)s2)on1 | inconclusive: 25.9 µM [inhibitor, single point] | –
55 | O=C(c1cc2ccccc2cc1O)N1CCN(c2ccccc2O)CC1 | inconclusive: 29.1 µM [inhibitor, single point] | –
56 | Fc1cccc(Cc2c(-c3ccccc3)nc3c4ccccc4ccn23)c1 | inconclusive: 29.1 µM [inhibitor, single point] | –
57 | CCOC(=O)C1=C(CN2CCCCC2)NC(=O)NC1c1cc(C)ccc1C (configuration not stated) | inconclusive: 20.6 µM [inhibitor, single point] and inconclusive: 18.4 µM [inhibitor, single point] | –
58 | O=C(c1ccc(Cn2c(=S)[nH]c3cc4c(cc3c2=O)OCO4)cc1)N1CCN(c2ccccc2)CC1 | inconclusive: 25.9 µM [inhibitor, single point] | –
59 | Cn1cnnc1SCC(=O)c1ccc2c(c1)NC(=O)CO2 | inactive | –
60 | CCn1cc(C(=O)N2CCN(c3ccc(F)cc3)CC2)c(=O)c2cc(S(=O)(=O)N(C)C3CCCCC3)ccc21 | inconclusive: 25.9 µM [inhibitor, single point] | –
61 | Nc1nc(SCC(=O)NCCN2CCOCC2)nc2sc3c(c12)CCC3 | inactive | –
62 | CS(=O)(=O)Nc1ccccc1-c1cccc2nccn12 | inactive | –
63 | C[C@@H](C(=O)Nc1ccc(OC(F)F)c(Cl)c1)N1C(=O)C2CC=CCC2C1=O (some centres not stated) | inactive | –
64 | CCOC(=O)c1ccc(NS(=O)C23CC4CC(CC(C4)C2)C3)cc1 (configuration not stated) | inconclusive: 18.4 µM [inhibitor, single point] | –
65 | CCc1cccc(NC(=O)C2CCCN(S(=O)(=O)c3cccs3)C2)c1 (configuration not stated) | active: 20.6 µM and active: 16.4 µM | –
66 | CC(C)(C)c1ccc(OCCn2cc(C(=O)c3ccco3)c3ccccc32)cc1 | inconclusive: 20.6 µM [inhibitor, single point] | –
67 | COc1ccccc1N1CCN(C(CNC(=O)C(=O)NCc2ccc(C)cc2)c2cccnc2)CC1 (configuration not stated) | active: 4.61 µM | –
